From the supplement of paper PMC10126150
Values marked as one replicate rest on one cluster of the flow cell; about a third of the high ones do not repeat.
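Further: ATP exposure 15 min at 22 °C before imaging.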

Each sequence was assayed on ATP (assay: switch fluorescence ratio, 500 uM ATP over buffer (Cy3 cluster intensity, sum of 5 cycles each) (fold (ratio)); higher = stronger signal-on switching upon ATP binding; sequences stand for … in TCGTCGGCAGCGTCAGATGTGTATAAGAGACAGTTTTTTTTTTTTTTTTTTTTTTTTT…TC). Conditions: aptamer strand: ATP DNA aptamer (quencher-CACCTGGGGGAGTATTGCGGAGGAAGG + anchor), 100 nM annealed; ATP concentration: 500 uM; one replicate.
How it was run: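 Cy3-labelled switching-strand clusters on a modified Illumina MiSeq flow-cell were annealed to 100 nM quencher-labelled ATP aptamer and imaged first in selection buffer, then after 15 min with 500 uM ATP at 22 °C. NaOH stripping and re-annealing separated each of five buffer/ATP cycles, and clusters outside 100-1000 RFU were excluded. The fluorescence ratio sums target-cycle Cy3 intensity over buffer-cycle Cy3 intensity per cluster and averages it per switch-domain sequence.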
AGATCTTGGT showed a switch fluorescence ratio of 1.01. AGATGAAAAC gave a switch fluorescence ratio of 1.13. With AGATGACTCA the switch fluorescence ratio was 0.962. Sequence AGATGATATC has a switch fluorescence ratio of 1. AGATGCACCG was tested, and the switch fluorescence ratio was 1.18. In the case of AGATGCTTTT, the switch fluorescence ratio is reported as 1.03. AGATGGCTCT showed a switch fluorescence ratio of 0.999. Sequence AGATGTAAC has a switch fluorescence ratio of 1.01. Work on AGATGTACAG yielded a switch fluorescence ratio of 0.998. AGATGTCAA was tested, and the switch fluorescence ratio was 0.959. AGATTATATG showed a switch fluorescence ratio of 0.979. Sequence AGATTCACGT has a switch fluorescence ratio of 1.01. AGATTCAGCG showed a switch fluorescence ratio of 1.03. AGATTCTTCA gave a switch fluorescence ratio of 1.01. AGATTGCGGG gave a switch fluorescence ratio of 0.958. Sequence AGATTTGGTG has a switch fluorescence ratio of 0.976. AGCAAACCAG showed a switch fluorescence ratio of 1.05. AGCAAAG showed a switch fluorescence ratio of 1.33. Sequence AGCAAATCAA has a switch fluorescence ratio of 0.995. In the case of AGCAACGTTA, the switch fluorescence ratio is reported as 1.04. AGCAACTACG was tested, and the switch fluorescence ratio was 1.82. Sequence AGCAACTTGT has a switch fluorescence ratio of 0.992. Sequence AGCAATTGGA has a switch fluorescence ratio of 1.17. With AGCACATGTG the switch fluorescence ratio was 1.07. AGCACCACGG showed a switch fluorescence ratio of 1.05. Sequence AGCACCCCGA has a switch fluorescence ratio of 1.17. Work on AGCACCCGTC yielded a switch fluorescence ratio of 1.07. AGCACCGC gave a switch fluorescence ratio of 1.03. For AGCACCGTCG, the switch fluorescence ratio was 1.03. AGCACCTGCG gave a switch fluorescence ratio of 0.96. For AGCACGCATG, the switch fluorescence ratio was 0.996. For AGCACTACAA, the switch fluorescence ratio was 1.11. AGCACTACGG showed a switch fluorescence ratio of 1.21. For AGCAGAAGTA, the switch fluorescence ratio was 1.21. In the case of AGCAGAGCCA, the switch fluorescence ratio is reported as 1.02. In the case of AGCAGCACCC, the switch fluorescence ratio is reported as 1.08. With AGCAGCAGTC the switch fluorescence ratio was 1.45. AGCAGCTGAT gave a switch fluorescence ratio of 0.994. Sequence AGCAGGATGA has a switch fluorescence ratio of 0.974. Work on AGCAGGCGAC yielded a switch fluorescence ratio of 1.14. With AGCAGGTTTT the switch fluorescence ratio was 0.989. In the case of AGCATAATCC, the switch fluorescence ratio is reported as 1.85. With AGCATAGCGT the switch fluorescence ratio was 1.03. For AGCATATTTT, the switch fluorescence ratio was 1.04. Sequence AGCATTATTC has a switch fluorescence ratio of 1.31. With AGCATTCTTT the switch fluorescence ratio was 1.01. AGCATTGTGC showed a switch fluorescence ratio of 0.983. AGCATTTCAT showed a switch fluorescence ratio of 0.952. AGCATTTCTC showed a switch fluorescence ratio of 1.64. Sequence AGCATTTTGC has a switch fluorescence ratio of 1.01. With AGCCAACCCC the switch fluorescence ratio was 1.2. AGCCAATGTC showed a switch fluorescence ratio of 1.15. Work on AGCCAATTAA yielded a switch fluorescence ratio of 1.03. Sequence AGCCAGC has a switch fluorescence ratio of 1.01. AGCCCATCC was tested, and the switch fluorescence ratio was 1.03. For AGCCCCAAGT, the switch fluorescence ratio was 1. Sequence AGCCCCCAAT has a switch fluorescence ratio of 2.74. For AGCCGCTAGA, the switch fluorescence ratio was 1.08. Sequence AGCCGTTGTT has a switch fluorescence ratio of 0.971. AGCCTAGGTC was tested, and the switch fluorescence ratio was 0.973. Work on AGCCTCGATA yielded a switch fluorescence ratio of 0.987. AGCCTGGATT gave a switch fluorescence ratio of 1.01. In the case of AGCCTGTCTC, the switch fluorescence ratio is reported as 1.01. AGCCTTCTCC gave a switch fluorescence ratio of 2.15. AGCGAGAGAG showed a switch fluorescence ratio of 1.01. AGCGAGATGT showed a switch fluorescence ratio of 0.978. In the case of AGCGAGCGCA, the switch fluorescence ratio is reported as 1.04. With AGCGAGCTAA the switch fluorescence ratio was 1.03. Work on AGCGAGGAGG yielded a switch fluorescence ratio of 1.02. AGCGAGTACG was tested, and the switch fluorescence ratio was 1.02. AGCGATAAGG showed a switch fluorescence ratio of 1.02. AGCGATTCGG showed a switch fluorescence ratio of 0.995. Work on AGCGCAAGAA yielded a switch fluorescence ratio of 2.66. AGCGCATAAT was tested, and the switch fluorescence ratio was 1. Work on AGCGCCGGG yielded a switch fluorescence ratio of 1.04. For AGCGCGCATA, the switch fluorescence ratio was 1.06. With AGCGCTATAT the switch fluorescence ratio was 1.04. For AGCGCTGGCA, the switch fluorescence ratio was 1. In the case of AGCGGAAGTG, the switch fluorescence ratio is reported as 1.02. Sequence AGCGGAGGGT has a switch fluorescence ratio of 1.09. In the case of AGCGGATGGC, the switch fluorescence ratio is reported as 0.995. In the case of AGCGGCAGAC, the switch fluorescence ratio is reported as 1.28. Sequence AGCGGCC has a switch fluorescence ratio of 1. With AGCGGCTAAA the switch fluorescence ratio was 1. Sequence AGCGGGCACG has a switch fluorescence ratio of 0.986.
